This is an account of results in article PMC4336329 (PLoS ONE, 2015).

Each structure is given as a SMILES string. Out of some 310,000 compounds screened, about 14,000 (4.5%) showed an effect of 50% or more. The effect is printed as a negative number. The list shows a part of the results.
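Also: peak tail current of the secondary pulse compared with the same well before compound.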

Chain of human ether-à-go-go-related gene (hERG) potassium channel (Q12809 whole entry, looked up): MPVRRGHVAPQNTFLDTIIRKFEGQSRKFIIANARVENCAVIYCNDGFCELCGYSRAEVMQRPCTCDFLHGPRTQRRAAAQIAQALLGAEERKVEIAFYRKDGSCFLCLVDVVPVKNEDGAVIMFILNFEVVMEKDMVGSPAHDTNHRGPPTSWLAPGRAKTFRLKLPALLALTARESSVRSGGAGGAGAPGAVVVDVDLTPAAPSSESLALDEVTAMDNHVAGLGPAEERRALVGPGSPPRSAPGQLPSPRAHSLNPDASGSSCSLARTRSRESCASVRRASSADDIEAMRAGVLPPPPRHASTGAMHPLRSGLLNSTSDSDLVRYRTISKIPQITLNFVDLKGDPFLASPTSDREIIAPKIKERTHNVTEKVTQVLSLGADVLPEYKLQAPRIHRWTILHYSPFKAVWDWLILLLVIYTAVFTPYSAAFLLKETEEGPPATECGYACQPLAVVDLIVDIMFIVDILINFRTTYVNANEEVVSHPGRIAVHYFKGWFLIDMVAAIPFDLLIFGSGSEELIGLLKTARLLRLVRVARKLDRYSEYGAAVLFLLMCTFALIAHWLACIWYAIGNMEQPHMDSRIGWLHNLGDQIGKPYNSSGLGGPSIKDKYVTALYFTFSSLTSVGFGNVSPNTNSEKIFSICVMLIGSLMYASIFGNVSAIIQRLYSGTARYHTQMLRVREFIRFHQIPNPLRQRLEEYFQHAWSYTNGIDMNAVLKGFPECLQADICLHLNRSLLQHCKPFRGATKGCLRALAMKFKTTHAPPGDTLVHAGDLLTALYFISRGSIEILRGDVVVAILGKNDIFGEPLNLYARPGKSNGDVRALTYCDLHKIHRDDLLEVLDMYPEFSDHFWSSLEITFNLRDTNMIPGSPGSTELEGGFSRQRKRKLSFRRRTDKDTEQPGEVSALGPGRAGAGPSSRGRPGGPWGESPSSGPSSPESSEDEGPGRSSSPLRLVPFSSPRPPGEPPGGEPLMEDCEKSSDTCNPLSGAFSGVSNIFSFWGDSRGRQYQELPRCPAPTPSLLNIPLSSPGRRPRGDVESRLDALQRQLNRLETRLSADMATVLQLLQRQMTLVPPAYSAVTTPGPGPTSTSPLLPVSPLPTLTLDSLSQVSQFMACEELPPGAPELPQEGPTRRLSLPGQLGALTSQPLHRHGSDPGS

This test concerns the target human ether-à-go-go-related gene (hERG) potassium channel (human, UniProt Q12809). The test is described as follows: primary screen, population patch clamp on CHO cells stably expressing hERG.
For the molecule `[Br-].c1ccc(-c2cn(-c3ccccc3)c3[n+]2CCS3)cc1`, the “hERG current change (%, negative = inhibition) at 10uM” value was -5.74%.
Consider `O=C(O)c1cccc(Cn2c(Cl)c(/C=N/NC(=O)c3cc4ccccc4cc3O)sc2=O)c1`, for which the “hERG current change (%, negative = inhibition) at 10uM” value is 1.45%.
With `C#CCn1c(=NC(=O)CSC(C)=O)sc2cc(F)ccc21`, the “hERG current change (%, negative = inhibition) at 10uM” value is recorded as -8.88%.
The figure for `COCc1c(C(=O)OCC(=O)N2CCCC2=O)oc2ccccc12` is 11.6%; for `N#Cc1c(=O)c2nc(NCCCO)ncc2n2c(=O)c3ccccc3[nH]c12` it is 19.4%.
The figure for `CC1(C)Cc2cccc(OCC(=O)NC3CC3)c2O1` is 11.3%.
For `CC(=O)OC1c2ccccc2C(=O)N1Cc1ccccc1` (stereo not drawn) the value was 8.99%; for `CN1C2CCC1CC(OC(=O)c1c[nH]c3ccccc13)C2.Cl` (stereo not drawn), -40.2%.
Regarding `CC1=CN2C(=N)/C(=C/c3ccc(Sc4ccc(C)cc4)o3)C(=O)N=C2S1`, the “hERG current change (%, negative = inhibition) at 10uM” value was determined as 10.1%.
In the case of `COc1ccc(-n2c(Cn3nnc4ccccc43)nnc2SCC(=O)O)cc1`, the “hERG current change (%, negative = inhibition) at 10uM” value is listed as 18.5%.
For `O=C(CN1C(=O)CSc2ncccc21)Nc1ccccc1F` the value was 11%; for `CNC(=O)COC(=O)Cc1ccc(Cl)cc1`, -5.86%; for `COc1ccccc1NC(=S)NC(C)C(c1cccs1)N1CCOCC1` (stereo not drawn), -24.2%.
For `CCCOc1ccc(C(=O)C(CN2CCOCC2)c2ccccc2)cc1` (stereo not drawn) the value was -8.97%.
The figure for `CSCCC(NC(=O)c1ccccc1)C(=O)N1CC(C)OC(C)C1` (stereo not drawn) is 15.5%.
With `CN1CCN(S(=O)(=O)c2ccc(SCCOc3ccccc3)nc2)CC1`, the “hERG current change (%, negative = inhibition) at 10uM” value was -30.1%.
As to `Cc1ccc2[nH]c(=O)c(CN(CC3CCCO3)C(=O)c3cccs3)cc2c1` (stereo not drawn), the “hERG current change (%, negative = inhibition) at 10uM” value is recorded as 9.62%.
For `CCCCN1C(=O)/C(=C\c2ccco2)C(=O)N(CCc2ccccc2)C1=O` the value was 8.1%; for `CCOc1ccccc1N(CC(=O)NC1CCCCC1)C(=O)CNC(=O)c1ccco1`, 8.1%.
The figure for `CN(C)Cc1nc2c([nH]1)c(=O)n(C)c(=O)n2C` is -0.353%.
The figure for `N#CC1=C2SCC(O)(c3ccccc3)N2C(=O)CC1c1cccs1` (stereo not drawn) is -22.7%.
For the molecule `COc1c2c(nc3occc13)C(CC=C(C)C)(OC)C(OC(C)=O)CC2` (stereo not drawn), the “hERG current change (%, negative = inhibition) at 10uM” value came out at 10.8%.
For `COc1ccc(CC(=O)OCC(=O)c2ccc[nH]2)cc1`, the “hERG current change (%, negative = inhibition) at 10uM” value is given as -6.48%.
In the case of `Cc1cc(C)nc(SCC(=O)OC(C)C(=O)Nc2ccccc2)n1` (stereo not drawn), the “hERG current change (%, negative = inhibition) at 10uM” value turned out to be 12%.
With `CCc1nn(CCCC(=O)NCc2ccc(OC(C)C)cc2)c(=O)c2cc3occc3n12`, the “hERG current change (%, negative = inhibition) at 10uM” value was -54.4%.
The figure for `O=C(Nc1ccc(F)c(Cl)c1)Nn1cnnc1` is 12.5%; for `CC1CCN(C(=O)Cn2cnc3c2c(=O)n(C)c(=O)n3C)c2ccccc2S1` (stereo not drawn) it is -15%; for `O=C(COc1ccc2ccccc2c1)NNC(=O)c1cnccn1` it is -7.99%.
For `CSc1nc(Cc2ccccc2)nc2ccccc12` the value was 22.9%.
For `Cn1c(NCCO)nc2c(c1=O)C1(CCCCC1)Cc1ccccc1-2` the value was 5.44%; for `CNC(=O)c1c(I)c(C(=O)NCC(=O)Nc2c(I)c(C(=O)O)c(I)c(C(=O)NCCO)c2I)c(I)c(N(C)C(C)=O)c1I`, 6.45%; for `c1ccc2cc(-c3cc4ccccn4c3)ccc2c1`, 2.65%.
For `Clc1ccc(-n2ncc3c(NCCN4CCOCC4)ncnc32)cc1`, the “hERG current change (%, negative = inhibition) at 10uM” value is recorded as -34.7%.
The figure for `CN1C2C=C3C(C#N)=C(N)C(C#N)(C#N)[C@H](c4c(F)cccc4F)[C@H]3C1CC2` (stereo partly drawn) is -6.37%.
The figure for `Cc1nc(C)c2c(=O)cc(-c3ccccc3)[nH]c2n1` is -27.3%; for `O=C(CN(c1ccccc1)S(=O)(=O)c1ccccc1[N+](=O)[O-])Nc1ccccc1C(=O)N1CCOCC1` it is 3.76%; for `O=C(NN1C(=O)c2ccccc2NC1c1ccoc1)c1ccccc1` (stereo not drawn) it is -0.43%.
For `CCCOc1ccc(/C=N\NC(=O)CCc2n[nH]c(=O)[nH]c2=O)cc1OC` the value was 2.51%; for `COc1cc(C(=O)NCCNC(=O)C2CCCNC2=O)cc(OC)c1OC` (stereo not drawn), -1.92%.
As to `Cc1ccc(Cn2c(=O)c3c(nc4n3CCCN4Cc3ccccc3)n(C)c2=O)cc1`, the “hERG current change (%, negative = inhibition) at 10uM” value stood at 9.88%.
The figure for `O=S1(=O)CCC(NC(=S)SCCOc2ccccc2)C1` (stereo not drawn) is -13.9%; for `O=C(NC(=S)Nc1ccc(N2CCCCC2)cc1)c1ccc2c(c1)OCCO2` it is 1.25%.
For `O=C(O)CS(=O)CC(=O)NCc1cccc(C(F)(F)F)c1` (stereo not drawn) the value was 16%; for `Cn1nc(-c2ccc(C(=O)NCC3CCCO3)cc2)c2ccccc2c1=O` (stereo not drawn), -2.17%.
The figure for `O=C(Cn1cnc2ccccc2c1=O)Nc1ccc2c(c1)OCCO2` is -16%.
As to `COc1ccccc1N1CCN(C(=O)c2n[nH]c3ccccc23)CC1`, the “hERG current change (%, negative = inhibition) at 10uM” value is on record as 21.9%.
The figure for `Cc1cc(NC(=O)c2ccc(Cl)cc2)n(CCOC(=O)c2ccc(Cl)cc2)n1` is -3.84%; for `CCC1Sc2ccc(S(=O)(=O)CCC(=O)NCc3ccc(C)o3)cc2NC1=O` (stereo not drawn) it is 9.8%; for `COc1ccc(CCNC(=O)c2cnn3cccnc23)cc1OC` it is 8.36%.
`CC(=O)NS(=O)(=O)c1ccc(NC(=O)c2ccc(Br)o2)cc1`: the “hERG current change (%, negative = inhibition) at 10uM” value is recorded as 12.3%.
The figure for `CCCCn1nc(C(=O)Nc2ccc(S(=O)(=O)Nc3ncccn3)cc2)c2ccccc2c1=O` is -0.506%; for `O=C(NC1CCCC1)C1CCN(C(=O)c2ccc(Cl)cc2)CC1` it is 20.2%; for `Cl.c1ccc(-c2ccccc2OCCOCCN2CCc3ccccc3C2)cc1` it is -28.7%.
On to `COc1ccc(CCN2C(=O)CCC2(C)C(=O)NC2CCCC2)cc1OC` (stereo not drawn), for which the “hERG current change (%, negative = inhibition) at 10uM” value stood at 7.89%.
For `CCOc1ccc(S(=O)(=O)Nc2cccc(C(=O)NCCCN3CCOCC3)c2)cc1` the value was -19.5%; for `COc1cccc(CN2CCN(S(=O)(=O)c3ccc(Br)cc3)CC2)c1`, -29.4%; for `O=C(O)C1CC1C(=O)Nc1cc(F)ccc1F` (stereo not drawn), 7.9%.
For `O=C(NCc1cc2ccccc2[nH]1)c1ccccc1F` the value was 17.3%; for `Cc1nc2ccccn2c1C(=O)N/N=C/c1ccc([N+](=O)[O-])cc1`, 2.88%; for `Cc1ccc(Cl)cc1NC(=O)C1C2CCC(O2)C1C(=O)O` (stereo not drawn), 23.5%.
The figure for `O=S(=O)(Nc1ncnc2sc3c(c12)CCC3)c1cc(F)ccc1F` is -25%; for `Cc1nc(SCc2c(Cl)cccc2Cl)nc(OC(=O)N(C)C)c1C` it is -4.32%.
On to `COc1ccc(NC(=O)CCn2c(=S)[nH]c3ccccc3c2=O)cc1OC`, for which the “hERG current change (%, negative = inhibition) at 10uM” value is given as 19.4%.
The figure for `Cc1ccc(S(=O)(=O)N(C)CCCC(=O)Nc2ccc(F)cc2)cc1` is -30.1%.
The figure for `Cc1cc(/C=C2/NC(=O)N(Cc3ccccc3F)C2=O)c(C)n1C` is -12%; for `O=C(NCC1CCCO1)C(=O)N/N=C/c1ccccc1C(=O)O` (stereo not drawn) it is 24.4%.
For `COC(=O)c1cc(S(=O)(=O)n2nc(C)c(Br)c2C)c(Cl)cc1Cl`, the “hERG current change (%, negative = inhibition) at 10uM” value is given as 9.64%.
The figure for `CN(C)Cc1ccccc1C(O)(c1ccccc1)c1ccccc1` is -3.3%.
The figure for `Cc1nc(-c2ccccc2)cs1` is 6.35%; for `CCC(Sc1nc2ccccc2c(=O)[nH]1)C(=O)Nc1ccc(C(C)=O)cc1` (stereo not drawn) it is -1.63%; for `c1ccc(Cc2nnc3sc(-c4ccc5c(c4)OCCO5)nn23)cc1` it is -6.12%.
As for `Cc1ccc(-c2nc3ncccn3c2Nc2ccc3c(c2)OCCO3)o1`, the “hERG current change (%, negative = inhibition) at 10uM” value was -5.98%.
As to `O=C1CCCc2ccccc2N1Cc1ccccc1Cl`, the “hERG current change (%, negative = inhibition) at 10uM” value is -16.4%.
For `COC(=O)c1ccc2c(=O)n(CCO)c(=S)[nH]c2c1` the value was 13.2%; for `O=C(COc1ncnc2scc(-c3ccc(F)cc3)c12)NCc1ccco1`, -9.55%.
For `O=c1c2ccccc2sn1-c1ccc(S(=O)(=O)N2CCCC2)cc1` the value was 18.1%; for `COc1cc(CN2CCCC(N3CCN(c4ccccc4C)CC3)C2)cc(Cl)c1O` (stereo not drawn), -40.2%.
For `CN1CCN(S(=O)(=O)c2ccc(Nc3ccc(F)cc3)nc2)CC1` the value was -28.5%; for `CCOc1ccc(S(=O)(=O)n2cc(-c3ccc(F)cc3)c(N)n2)cc1`, 11.2%.
Regarding `COc1ccccc1NC(=O)c1ccccc1SC`, the “hERG current change (%, negative = inhibition) at 10uM” value was -4.86%.
For `CCC1CCCCN1CCCNC(=O)CC1Oc2ccccc2NC1=O` (stereo not drawn) the value was -12.4%; for `CCN(CC)S(=O)(=O)c1ccc(NCc2ccccn2)nc1`, 12.9%.
The figure for `COCCn1c(C)cc(C(=O)COc2cccnc2[N+](=O)[O-])c1C` is -2.79%.
The figure for `Cc1ccc(C(=O)NCC(=O)N(C)CC(=O)Nc2ccccc2Br)s1` is -7.85%; for `CCCCn1c(O)c(C(C)=Nc2c(C)n(C)n(-c3ccccc3)c2=O)c(=O)[nH]c1=O` it is 9.64%.
For the molecule `N#Cc1nc(-c2cccs2)oc1NCc1ccc(Cl)cc1`, the “hERG current change (%, negative = inhibition) at 10uM” value was -8.4%.
The figure for `O=C(Nc1ccc2oc(=O)ccc2c1)c1cc2ccccc2o1` is -6.21%; for `O=C(O)CCC(=O)Nc1ccccc1C(=O)NCc1ccccc1` it is 10.3%.
The figure for `CCCCc1ccc(S(=O)(=O)Nc2cc(C)on2)cc1` is -0.896%; for `CCOc1ccccc1-c1ccc(C(=O)NCc2ccccc2)o1` it is 8.85%.
